Source: the supplement of paper PMC3334620
Whole data set: some 33,000 sequences, median “E-score (-0.5 to 0.5)” near -0.053, cut for the highest 2% near 0.37. This is one part of the list.

biological target: Hap1 (UniProt P0CE41); experiment: PBM E-score (8-mer binding enrichment) (E-score (-0.5 to 0.5)); higher = stronger / more preferred TF binding; most listed sequences are background and not binding sites; conditions: protein concentration: 200 nM; construct: GST-DNA-binding domain
Protocol: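 Universal 'all 10-mer' protein binding microarrays (Agilent AMADID 015681) probed with GST-tagged S. cerevisiae TFs (full-length or DBD) made by in vitro transcription/translation (PURExpress), about 100-200 nM. Bound TF was detected with fluorescent anti-GST. Each ungapped 8-mer (which stands for itself and its reverse complement) is scored by the PBM enrichment score (E-score), a modified Wilcoxon-Mann-Whitney statistic from -0.5 to +0.5, computed with the Universal PBM Analysis Suite. Scale: above 0.35 generally sequence-specific binding.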

Sequence of UniProt P0CE41 (P0CE41 whole entry, the tested form may be a part): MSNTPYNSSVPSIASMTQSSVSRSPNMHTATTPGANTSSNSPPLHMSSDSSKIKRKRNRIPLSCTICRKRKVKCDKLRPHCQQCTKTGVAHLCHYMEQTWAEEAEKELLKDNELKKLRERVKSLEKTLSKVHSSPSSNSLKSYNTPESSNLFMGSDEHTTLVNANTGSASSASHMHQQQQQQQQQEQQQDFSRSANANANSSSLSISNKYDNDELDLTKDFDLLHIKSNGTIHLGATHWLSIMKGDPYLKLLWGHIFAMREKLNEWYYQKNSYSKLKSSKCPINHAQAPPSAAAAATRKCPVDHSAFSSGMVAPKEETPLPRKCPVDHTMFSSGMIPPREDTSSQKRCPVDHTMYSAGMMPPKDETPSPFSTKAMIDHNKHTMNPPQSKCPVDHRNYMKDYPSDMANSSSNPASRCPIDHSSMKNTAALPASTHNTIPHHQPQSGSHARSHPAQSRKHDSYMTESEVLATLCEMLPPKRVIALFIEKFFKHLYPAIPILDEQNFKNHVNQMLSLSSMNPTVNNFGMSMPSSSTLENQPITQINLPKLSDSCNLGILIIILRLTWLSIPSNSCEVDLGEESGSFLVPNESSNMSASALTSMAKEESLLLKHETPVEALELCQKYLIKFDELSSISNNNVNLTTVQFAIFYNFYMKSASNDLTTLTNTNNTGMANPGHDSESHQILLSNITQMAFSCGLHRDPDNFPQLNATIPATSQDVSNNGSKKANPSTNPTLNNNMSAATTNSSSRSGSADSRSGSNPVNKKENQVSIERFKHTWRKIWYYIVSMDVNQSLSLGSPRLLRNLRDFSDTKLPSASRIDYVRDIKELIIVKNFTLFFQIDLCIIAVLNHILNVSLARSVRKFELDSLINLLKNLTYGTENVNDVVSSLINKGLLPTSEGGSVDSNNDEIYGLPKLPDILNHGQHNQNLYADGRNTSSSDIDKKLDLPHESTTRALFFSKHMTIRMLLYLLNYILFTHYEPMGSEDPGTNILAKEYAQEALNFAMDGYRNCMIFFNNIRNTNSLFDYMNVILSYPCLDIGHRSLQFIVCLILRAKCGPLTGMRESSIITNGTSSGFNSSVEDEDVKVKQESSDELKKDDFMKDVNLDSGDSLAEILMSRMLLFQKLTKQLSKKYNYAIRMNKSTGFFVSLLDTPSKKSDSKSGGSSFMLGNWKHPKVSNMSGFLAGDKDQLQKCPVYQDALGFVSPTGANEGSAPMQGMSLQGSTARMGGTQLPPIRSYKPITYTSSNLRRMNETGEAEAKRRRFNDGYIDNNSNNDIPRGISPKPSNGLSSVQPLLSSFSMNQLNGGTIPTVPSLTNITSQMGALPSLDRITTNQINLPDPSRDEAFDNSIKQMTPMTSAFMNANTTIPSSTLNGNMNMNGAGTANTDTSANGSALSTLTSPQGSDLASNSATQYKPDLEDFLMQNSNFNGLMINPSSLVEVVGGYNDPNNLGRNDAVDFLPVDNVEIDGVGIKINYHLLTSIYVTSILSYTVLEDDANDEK

Row | Sequence | PBM E-score
1 | GGCCTGAA | -0.118
2 | GGAAACCA | -0.0131
3 | CAATCAAC | 0.0213
4 | ACTTGTCG | 0.0391
5 | AGTTTCTC | -0.085
6 | AAATGTAA | 0.0697
7 | CATGTCCA | -0.0578
8 | CTACCCAA | -0.193
9 | GTCGCGCA | -0.00208
10 | CTACAAAG | -0.0829
11 | AGTGACAG | -0.0898
12 | GATCAGAA | -0.31
13 | CATTCAGC | -0.147
14 | AAGGGCAA | 0.181
15 | ATACCCCG | 0.346
16 | CAGCTATG | -0.287
17 | CATGGACA | -0.324
18 | ACCCGACC | 0.241
19 | GATCGACC | 0.152
20 | TAGGGCAA | -0.119
21 | CAGTCATA | -0.0907
22 | CCGCTTGA | 0.195
23 | AACAGGCG | -0.0897
24 | GCGTGGCA | -0.192
25 | ATAATGTA | -0.135

Row | Sequence | PBM E-score
26 | CAGTGTTA | 0.0338
27 | GTTATTCA | -0.111
28 | ATGCACTA | -0.142
29 | GCCCTCCC | -0.0121
30 | AGCGATAT | 0.11
31 | CAAAATAC | -0.082
32 | CCAATTGA | -0.22
33 | ATCACCTG | -0.158
34 | GACCCAAA | -0.00261
35 | GGCAAGAC | 0.0214
36 | CGCCACCC | -0.193
37 | TAAGTGAA | -0.0402
38 | ATTATTGG | 0.0397
39 | GCTAAAGC | 0.0298
40 | CCTAGATC | -0.193
41 | ACTCTGCA | -0.184
42 | GCGAGCCA | -0.157
43 | CAGATCGG | 0.274
44 | CGTACAGC | 0.0577
45 | CCCGTAAG | 0.18
46 | ACCATTTC | -0.0887
47 | AACCCATC | -0.113
48 | ATGGACAT | -0.0927
49 | GTAGTGTA | -0.148
50 | CCTCTTTA | -0.303

Row | Sequence | PBM E-score
51 | CGGTTCAG | 0.0909
52 | CAGAAATG | -0.227
53 | GGGTGAGA | -0.0757
54 | ATGATAGA | -0.0779
55 | CCTACAAG | -0.194
56 | GAGAGATA | 0.0119
57 | CGACTCTA | -0.164
58 | CCCTGACC | -0.102
59 | CACCACAG | -0.197
60 | ACCAAACA | -0.119
61 | ACAGCCCC | -0.0199
62 | GCGCAGAC | -0.0399
63 | AAGGCTTC | -0.0462
64 | CTCCCGAC | 0.035
65 | ACGCGATG | 0.025
66 | CCAGAAGA | -0.31
67 | CCTTTCAA | -0.113
68 | CAAAGAAC | -0.144
69 | ACCTCAAC | -0.0532
70 | CCATCAGA | -0.216
71 | GTATAGAA | -0.0728
72 | AGGATCAC | -0.175
73 | CCCTCAAG | -0.233
74 | CTGACGTA | -0.024
75 | CTCGGTGA | 0.332

Row | Sequence | PBM E-score
76 | CTAGCGTC | -0.0893
77 | ACTGTATA | -0.22
78 | ATGAACGG | 0.08
79 | AGTGATCG | -0.199
80 | ACGGCGAA | 0.0956
81 | ATCTGTAC | 0.00451
82 | CATGAAAC | -0.0437
83 | TACGTCCA | -0.0359
84 | CCCTGGTA | -0.373
85 | GTCGACGA | 0.0207
86 | GAAAGGCA | -0.04
87 | CAACCTAA | -0.301
88 | GGAGTGGA | -0.119
89 | CTGGTGCC | -0.217
90 | ATACCATA | -0.197
91 | ACGCCCGT | 0.251
92 | CGTTGAGC | 0.0372
93 | TGGACGAA | -0.0532
94 | AAATAACT | 0.0585
95 | CATTAAGG | 0.00986
96 | AGCTATGG | -0.0902
97 | CGACACCG | 0.276
98 | GGACAGTA | 0.157
99 | CACCTGAA | -0.0754
100 | CTGCTTTA | -0.00871

Row | Sequence | PBM E-score
101 | TCGGTTCA | 0.105
102 | CACCTATC | -0.0149
103 | CTACCGGA | 0.412
104 | TAAAATAA | -0.108
105 | CGGACTTC | 0.405
106 | GCTCGACC | -0.0718
107 | ACAGTAAT | -0.177
108 | AACGAGCG | -0.00418
109 | AAGTCGCG | -0.0433
110 | ATTCTGCG | 0.128
111 | AATCTGGC | -0.0469
112 | GATGCTCA | 0.0473
113 | AGGGCAGG | -0.118
114 | CGGGAGGA | 0.214
115 | GATGGCGA | 0.0618
116 | AGAATACA | -0.0427
117 | GTAGACCA | -0.229
118 | AATATCGT | 0.0191
119 | TGCTAACA | -0.0989
120 | CGTTTCAA | -0.112
121 | ATTGGATA | -0.117
122 | ACCTGGCA | -0.167
123 | ATCTTATG | -0.179
124 | ACTGGGTA | -0.124
125 | AAATTTCA | -0.377

Row | Sequence | PBM E-score
126 | TACCACTA | -0.237
127 | AAGAAACA | 0.00593
128 | GGGCACCC | -0.0275
129 | ACCAGTAT | 0.204
130 | CAGGACAG | -0.195
131 | ATCAAATC | 0.00784
132 | CCGATTAC | 0.246
133 | AATTGAGA | -0.0628
134 | GAGGCCAA | -0.0324
135 | ATGGGACA | 0.0407
136 | GCACGGCC | 0.196
137 | ACTATGAT | -0.214
138 | ACATTAGC | -0.0519
139 | CATTAGAA | -0.138
140 | ACTTACTC | -0.09
141 | CGCCTCGC | 0.0121
142 | CGCCCGTA | 0.142
143 | ACCACGAG | -0.0595
144 | AGCTTGTC | 0.0222
145 | AATGATCG | 0.067
146 | ATTTATAG | -0.141
147 | CCACCCCA | -0.183
148 | CGGACGCA | 0.35
149 | ATATTACG | 0.195
150 | CATAAGTA | -0.0126

Row | Sequence | PBM E-score
151 | CGCCTGAG | -0.0799
152 | GAAATAAA | 0.198
153 | CGACCGCG | 0.283
154 | ACACACCT | 0.0496
155 | AATGGTAA | 0.00211
156 | CAAACTGA | -0.116
157 | GAGACATA | -0.111
158 | CGATCACA | 0.0371
159 | GCTGTTGA | -0.0967
160 | CCCTAATA | -0.0869
161 | GCATTCAA | -0.105
162 | ACGATGAG | -0.127
163 | GTGTGCAA | -0.23
164 | CAATGACA | -0.207
165 | CTACAGCA | -0.0571
166 | GAGACCAA | 0.172
167 | AATTAAGA | -0.0701
168 | GCCTTTTA | -0.0799
169 | ACTAAAAA | 0.162
170 | GATCTTCA | 0.0446
171 | CTCGAAAG | -0.0952
172 | ACTCCCAA | -0.155
